The values that follow come from paper PMC5726920 (Nature chemical biology, 2017).

The data set deals with the molecule itself. As to the kind of experiment: native MS.

B1: human alpha enolase (enzyme)
chain: not shown
In the case of B1, the stoichiometry N (commonly the number of molecules, sites or subunits per partner or assembly) amounted to 2.
